# Data from PubChem BioAssay AID686970 (National Center for Advancing Translational Sciences (NCATS), 2013).
# Screen size: about 360,000 compounds; about 6,000 (1.7%) were called active. The shares of active, inactive and inconclusive entries below differ from those in the screen. Calls follow the shape of the dose curve; as a rule, active = well fitted cell-killing curve with a large enough effect; inconclusive = small, poorly fitted or top-dose-only effect, or effect the other way; inactive = flat fitted curve, though single readings scatter. No potency is given beside an inconclusive call; the fits are too rough.
# Assay: qHTS for induction of synthetic lethality in tumor cells producing 2HG: qHTS for the HT-1080-NT fibrosarcoma cell line;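 also: NT is the 2HG producing partner of a matched IDH1 knockdown line; nearly all actives have a fitted effect of over 55% in size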;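 as to activity, negative = less viability: 0% = DMSO-treated cells and -100% = media-only wells without cells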
# Settings: HT-1080-NT fibrosarcoma viability, CellTiter-Glo ATP luminescence, 48 h; activity, negative = less viability: at 46.1 µM (top of the series) unless noted
# Method in brief: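 Read-out is CellTiter-Glo luminescence after 10 minutes at room temperature, following 48 hours' compound treatment of HT-1080-NT cells (750 cells/well, RPMI, 5% FBS, 37 degrees C).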
# Potency is read from the fitted curve at half-maximal effect; tags tell the direction and shape of the fitted curve.
SMILES,Potency,"activity, negative = less viability"
O=C(CCCCCn1c(=S)[nH]c2ccc(N3CCOCC3)cc2c1=O)NC1CCN(Cc2ccccc2)CC1,"inconclusive [cytotoxic, partial curve]",–
CCOc1ccccc1NC(=S)NC(=O)CCCOc1ccc(Cl)cc1Cl,active: 11.2 µM,–
COc1ccccc1CNC(=O)COc1ccc([N+](=O)[O-])cc1,inactive,–
O=C(O)c1ccc(O)cc1O,"inconclusive [rising, full curve, poor fit]",–
COc1ccccc1Cc1c(-c2ccc(F)cc2)nc2ccc(Br)cn12,"inconclusive [cytotoxic, single point]",–
CN(C)S(=O)(=O)c1cccc(NC(=O)COc2ccc(C(=O)c3ccccc3)cc2)c1,"inconclusive [cytotoxic, partial curve]",–
COc1cc(/C=C/c2ccc3cccc(OC)c3n2)c(OC(C)=O)c([N+](=O)[O-])c1,"inconclusive [cytotoxic, single point]",–
CC1c2cc3c(cc2CCN1C(=O)c1ccc(Br)cc1)OCCCO3 (configuration not stated),"inconclusive [cytotoxic, single point]",–
COc1ccc2oc(=Nc3cc(F)ccc3F)c(C(N)=O)cc2c1,"inconclusive [cytotoxic, single point]",–
Cc1c(Cc2ccccc2)sc(/N=C/c2ccc3ccccc3c2)c1C(N)=O,active: 2.91 µM,–
CC(C)(C)n1nc2c(c1NC(=O)COc1ccc(Cl)cc1)CSC2,"inconclusive [cytotoxic, single point]",–
O=C(N/N=C/C1CC2CCC1C2)c1ccc2c(c1)OCO2 (configuration not stated),inactive,–
O=C(NCCOc1ccccc1)c1cc([N+](=O)[O-])ccc1N1CCOCC1,"inconclusive [cytotoxic, partial curve]",–
COc1ccc(CNC(=O)CCCn2ccc3cc(S(=O)(=O)N4CCCC4)ccc32)cc1,"inconclusive [cytotoxic, partial curve]",–
CC1(C)Cc2ccccc2C2=NNC(=O)C2=N1,active: 23.1 µM,–
COc1cccc(NC(=O)CN2C(=O)CSc3ccc(S(=O)(=O)N4CCCCC4)cc32)c1,inactive,–
COc1ccc(C(C)(O)c2nc(-c3ccccc3OC)cs2)cc1 (configuration not stated),"inconclusive [cytotoxic, single point]",–
Cc1ccc(Nc2nc(Cl)nc(N(C)C#N)n2)cc1,"inconclusive [cytotoxic, single point]",–
CNc1nc(NCCOc2ccccc2Cl)c2sccc2n1,"inconclusive [cytotoxic, single point]",–
CCCS(=O)(=O)N1CCN=C1SCc1cccnc1,–,inconclusive: 30%
COc1ccc(N(CC(=O)Nc2ccccc2C(=O)O)S(=O)(=O)c2ccc(C)c([N+](=O)[O-])c2)cc1,inactive,–
COc1ccc(CCNCC(=O)Nc2ccc(C)c(Br)c2)cc1OC,"inconclusive [cytotoxic, single point]",–
Cc1ccc(C(=O)N(CC(=O)Nc2sc(C)c(C)c2C(N)=O)C2CCCC2)cc1,inactive,–
CCN(CC)CCCNC(=O)c1sc2nc(-c3ccc(F)cc3)cn2c1C,"inconclusive [cytotoxic, single point]",–

SMILES,Potency,"activity, negative = less viability"
N/C(Cc1ccc([N+](=O)[O-])cc1)=N\OC(=O)Cc1ccccc1,inactive,–
Cn1nc(C(C)(C)C)cc1NC(=O)Nc1cc(Cl)cc(Cl)c1,active: 16.4 µM,–
COc1ccccc1Nc1nnc(SCC(=O)Nc2nc(-c3ccc(F)cc3)cs2)s1,active: 23.1 µM,–
CC(C)CCn1c(=O)c2ccccc2n2c(CCl)nnc12,active: 18.4 µM,–
COc1cc(C2c3c([nH]c(=O)[nH]c3=O)Nc3ccc4ccccc4c32)cc(OC)c1OC (configuration not stated),"inconclusive [cytotoxic, single point]",–
CC(=O)Nc1ccc(Nc2nc(-c3c(C)nc4ccccn34)cs2)cc1,"inconclusive [cytotoxic, full curve]",–
CN(CC(=O)Nc1ccc(Cl)cc1)C(=O)c1ccc(COc2ccccc2)cc1,"inconclusive [cytotoxic, single point]",–
COc1cc2c(c(OC)c1OC)-c1ccc(NCc3ccccc3)c(=O)cc1C(NC(C)=O)CC2 (configuration not stated),active: 3.66 µM,–
OC(c1cccc(Cl)c1)c1nc(-c2csc3ccccc23)cs1 (configuration not stated),"inconclusive [cytotoxic, single point]",–
O=C(c1ccco1)N1CCN(Cc2nnc(-c3cccc(Br)c3)o2)CC1,inactive,–
COc1ccc(NC(=O)CSc2nnc(C3CCCCC3)n2-c2ccccc2)cc1,inactive,–
CCCOc1ccc2c3c(c(=O)oc2c1OCCC)CCC3,"inconclusive [cytotoxic, single point]",–
Cn1cccc1C(=O)OCc1ccc(C(C)(C)C)cc1,"inconclusive [cytotoxic, single point]",–
Cc1ccc(S(=O)(=O)/N=C2\C=C(NS(=O)(=O)c3ccccc3)C(=O)c3ccccc32)cc1,"inconclusive [cytotoxic, partial curve]",–
CCOC(=O)c1cc(-c2ccc(OC)cc2OC)nn1-c1ccc(C(=O)O)cc1,inactive,–
OC(Cn1cccn1)c1ccccc1 (configuration not stated),–,inconclusive: 31.3%
COC(=O)c1c(NC(=O)CCl)sc(C(=O)N2CCOCC2)c1C,active: 7.31 µM,–
O=C(C(=O)c1cc(Br)ccc1O)c1cc(Br)ccc1O,active: 3.66 µM,–
C[C@H]1C[C@H]2[C@@H]3CCC4=CC(=O)C=C[C@]4(C)[C@@]3(F)[C@@H](O)C[C@]2(C)[C@@]1(O)C(=O)CO,"inconclusive [rising, full curve, poor fit]",–
COCCN1C(=O)c2ccc(C(=O)Nc3nccs3)cc2C1=O,inactive,–
O=C(Nc1cccc(Cl)c1)c1nc[nH]c1C(=O)NCCCCNC(=O)c1[nH]cnc1C(=O)Nc1cccc(Cl)c1,"inconclusive [rising, single point]",–
N#CC1=C(N)Oc2c(ccc3cccnc23)C1c1ccccc1 (configuration not stated),"inconclusive [cytotoxic, partial curve]",–
CC(C)(C)c1ccc(OCCC(=O)OCC(=O)NC(=O)NC2CCCC2)cc1,"inconclusive [cytotoxic, single point]",–
CN(C(=O)Nc1ccc(Cl)cc1Cl)[C@H]1c2cc(Br)ccc2OC[C@H]1CO,"inconclusive [cytotoxic, single point]",–

SMILES,Potency,"activity, negative = less viability"
O=C(NCc1ccc(Cl)cc1)c1cc(=O)nc2sc(-c3ccccc3)nn12,"inconclusive [cytotoxic, full curve]",–
COCCn1c(=NC(=O)c2ccc(S(=O)(=O)N3CCCc4ccccc43)cc2)sc2cc(S(C)(=O)=O)ccc21,inactive,–
CCC(=NCCc1c(C)[nH]c2ccc(OC(F)(F)F)cc12)C1=C(O)CC(c2ccccc2)CC1=O (configuration not stated),active: 4.11 µM,–
CC1C(=O)N2CCCc3cc(NC(=O)C(=O)NCCc4ccccc4)cc1c32 (configuration not stated),inactive,–
Nc1nonc1-n1nnc(C(=O)N/N=C/c2ccc(F)cc2)c1-c1ccc2c(c1)OCO2,"inconclusive [cytotoxic, partial curve, poor fit]",–
CCCCn1c(CCn2nc(C)c(Br)c2C)n[nH]c1=S,"inconclusive [cytotoxic, single point]",–
CC(=O)Nc1ccc(-c2csc(Nc3cc(C)ccn3)n2)cc1,"inconclusive [cytotoxic, single point]",–
S=C(NCCc1ccccc1)N1CCN(C2CCCCC2)CC1,"inconclusive [cytotoxic, partial curve]",–
CC(C)Cc1ccc(C(C)C(N)=Nc2ccc(O)cc2)cc1 (configuration not stated),"inconclusive [cytotoxic, partial curve]",–
COC(=O)c1ccccc1S(=O)(=O)NNC(=O)Nc1ccccc1,inactive,–
Cc1csc(NC(=O)COc2ccc3c(c2)CCC3)n1,inactive,–
O=C1ON=C(c2ccc(Cl)cc2)/C1=C/c1ccc(O)cc1,"inconclusive [cytotoxic, single point]",–
Oc1c(Br)cc(Br)cc1C=NCc1ccc(F)cc1,"inconclusive [cytotoxic, single point]",–
O=C(NCc1ccc(F)cc1)c1cc(C2CCCCN2S(=O)(=O)c2ccccc2)on1 (configuration not stated),inactive,–
O=C(Nc1ccccc1)OC1CCC2CC1CCC2OC(=O)Nc1ccccc1 (configuration not stated),"inconclusive [cytotoxic, single point]",–
CCCCc1[nH]nc2c1C1(C(=O)N(CC)c3ccccc31)C(C#N)=C(N)O2 (configuration not stated),inactive,–
CC1(C)C(C=C(Cl)Cl)C1C(=O)Nc1ccc([N+](=O)[O-])cc1 (configuration not stated),active: 23.1 µM,–
C=C(C)[C@@H]1C2=CC(C(=O)OC)=C(C[C@@H](C(=C)C)[C@H]3O[C@H]3C3=C[C@H]1OC3=O)O2,active: 3.98 µM,–
COc1ccc([C@H]2CC(=O)C=C(c3ccccc3-c3ccccc3)C2)cc1,"inconclusive [cytotoxic, single point]",–
CCCn1nc(C(=O)Nc2cccc(S(=O)(=O)N3CCOCC3)c2)c2ccccc2c1=O,inactive,–
COc1cccc(S(=O)(=O)N(C)C[C@H]2OCc3cnnn3CCCC(=O)N([C@H](C)CO)C[C@H]2C)c1,inactive,–
CCOC(=O)C1(Cc2ccc(OC)cc2)CCN(C(=O)C2CCCO2)CC1 (configuration not stated),–,inconclusive: 31.5%
O=C(CSC(=S)N1CCOCC1)Nc1ncc2c(n1)CC(c1ccco1)CC2=O (configuration not stated),inactive,–
Cc1ccc(NC(=O)c2cccc(C(=O)OC(C)C)n2)c(Br)c1,inactive,–
